The source gives no read counts; variants with many changes may rest on few reads.

B1: CPEB3 Ribozyme (parent)
chain: UAACAGGGGGCCACAGCAGAAGCGUUCACGUCGCAGCCCCUGUCAGAUUCUGGUGAAUCUGCGAAUUCUGCUGUAUAUCUC

In this series the parent is B1. Description: self-cleavage, relative activity (ratio to wild type); higher = more cleavage; in vitro, sequencing. The procedure, abridged: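 Barcoded CPEB3 ribozyme mutants, produced by rounds of error-prone PCR, self-cleaved while being transcribed with T7 RNA polymerase for 5 hours at 37°C and during a subsequent 15 min DNase I step before EDTA was added. Sequencing of template-switched cDNA on Illumina gave cleaved and total reads, and DNA sequencing assigned barcodes to variants. Each variant's relative activity is its cleaved/total read fraction divided by the unmutated ribozyme's fraction, averaged across three batches. A variant needed a minimum of 5 reads.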
In the case of A64G U66A U67C, the self-cleavage came out at 0.35. The value for C68U U72G U80C was 1.11; that for A65U U67C U74C U80A was 0.23. The same measure for U58A A65G U80C: 0.14. On to C68G U72C U78C, for which the self-cleavage was determined as 0.42. The value for U67C U78A U80C was 0.3. For U60C C71U A77U, the self-cleavage turned out to be 0.43. The value for A57G U69A U76C was 0.7; that for A65G A77G U78C was 0.19; that for A64G U66C C71G C81U was 0.22. The value for U60A U69A U74C was 0.41. The value for U69C U74A U80C was 0.88; that for C59U C71G U72C U76A was 0.21; that for C59G G70A U78C was 0.26. For the variant G70A A77U C79U, the self-cleavage turned out to be 0.71. The value for U66C U72G A77U was 0.36.

Take A57G U58A G63C G70U: the self-cleavage is 0.23. The value for G70A U76C A77G was 0.42. The same measure for U58C A64G U67C: 0.31; for A65U U76C U78C: 0.23; for U58C A64U U76C: 0.14. The value for U58C C62A U72C A75G was 0.35; that for U60C U67C U72A was 0.34. As for U69A U72A A77G, the self-cleavage is 0.4. The same measure for G73U A77U U78C: 1.27. The value for U67C U74C U78G was 0.43; that for U60C U67C U78C was 0.28. The value for U69C U72C U78C was 0.39; that for U60A U67C U69G A75G U78C was 0.47; that for U69C U72C U74C was 0.44. On to U60C U74A U80C, for which the self-cleavage is 0.83. The same measure for C62U A64U U72C U80C: 0.25; for A65G C71G U72C: 0.2. The same measure for A57G A65G U69C A77U: 0.34. Take A57G U74C U80A: the self-cleavage came out at 1.27.

With U66G U78C U80C, the self-cleavage is 0.25.

Take G63A A65U U67C G73U: the self-cleavage was 0.65. The value for A65G U74C C81U was 0.98. The same measure for U60A A65G G73A: 0.56; for U66A U76C U78G: 0.54; for U60G A65G A75U: 0.29. The same measure for C62U U69A A75U U76A: 0.27. For A57G U72C U76C, the self-cleavage is 0.65. The same measure for C62U A65G U69A: 0.18; for U60G C62U U78C: 0.2. The value for U58C U60A U80A was 0.21; that for U67C U72C U76C was 0.26; that for U60C U69G U72A A75G was 0.11.

For A57U U66C A77U U80C, the self-cleavage was determined as 0.24. The same measure for A57G A64G U80A: 0.65; for U69A A77U U78A: 1.02; for U60C U72A A75G: 0.49. Turning to G61A G70U U76A, the self-cleavage stood at 0.2. The value for A64G U66C U67A U72C was 0.23.

In the case of C62U A75G U80C, the self-cleavage worked out at 0.47. The value for G63U C71A U74A U80C was 1.08. The same measure for A57G U60A G63A U76C: 0.23; for G63A A65G U67C: 0.43; for U67A U78C U80C: 0.3. With U66G U67C C81A, the self-cleavage was found to be 0.24. For U60C U72C A75U, the self-cleavage worked out at 0.76.

For A65G U66C C81U, the self-cleavage came out at 0.22. The value for U66C U67G C71G was 0.14; that for G61A C62A U72A was 0.44; that for U60C U76C A77U was 0.73. The same measure for U58C A64G U72C U78C: 0.69; for C62U U76C U78C: 0.21. The same measure for A57U U58C U76C: 0.21; for A57G U58C U80A: 0.37; for U74C A75U U80C: 1.14. Regarding U60C A77G U78C, the self-cleavage was found to be 0.39. The value for U58G U69C A75G U78C was 0.19; that for A57G U69A A77U was 0.49; that for A64G A65G U69G C71U U72C was 0.18.

For G70A U72C U78C, the self-cleavage worked out at 0.39. The same measure for A57G U69A U80A: 0.14; for U60C G63U U66C: 0.2; for U60C U72C C79A: 1.23. The same measure for G63C U67C U74C: 0.25; for A64G U69A U80C: 0.36. The value for U60A A64G U67C was 0.35; that for U60C U69C U78C was 0.33; that for U58C U60C U66A U80C was 0.21.

Regarding U69C C71U U72C, the self-cleavage was 0.28. As for A65G U69C U74C U78C, the self-cleavage amounted to 0.34. As to A57G U67C U72C, the self-cleavage is 0.46.

As to C62U A65G U78A, the self-cleavage is 0.15. The same measure for C59G U60C A75G: 0.12; for G70A U72C U74C: 0.36. The value for U60C U66C U80C was 0.18; that for A57G A64G U76A was 0.58. The value for U60A A64G U72C was 0.33; that for G63A A65G U69A U74A was 0.26; that for A57G U66A U72A was 0.47. Take A64G U80C C81U: the self-cleavage stood at 1.06.

Turning to U66A U76C U80C, the self-cleavage turned out to be 0.49.

Turning to G70C U72C A75U, the self-cleavage was determined as 0.32. The same measure for A57G A64U A77G: 0.23; for U60C A75G U78C: 0.29; for U66C U67C U80C: 0.15. The same measure for A57G U69G U80A: 0.75; for U58C U60A A64U U69C C81U: 0.16; for U58C U60C U80C: 0.19. For A65G U72A U80A, the self-cleavage was 0.58. The same measure for U60A A64U A65G U72A: 0.36; for A57G U58A A64G U76A: 0.2; for C68U U69A A75U: 0.33. The same measure for U60A A75G U78G: 0.61.

For U58A A77G U80C, the self-cleavage worked out at 0.38.

For the variant U58C U60A A64U U72A A75U U80A, the self-cleavage stood at 0.27.

For U69C U72C A77U, the self-cleavage was determined as 0.2. The same measure for A65G A75U C79U: 0.68; for U58C U67C U69A: 0.2. The value for C62U U67A C71U was 0.23; that for A64U U72G A75U was 0.34.

Source of the values: the RNAGym collection of RNA variant scans (doi:10.1093/nar/gkz1192).
